From the supplement of paper PMC10338343
± gives the standard deviation. The full ranking holds about 3,700 sequences; the median of “pre-steady-state target cleavage rate” is about 0.02, and the highest 2% start at about 0.23. The entries are a selection whose mix differs from that of the whole data set.

System: MILI (PIWIL2) piRISC loaded with Kctd7 piRNA (26 nt)
Experiment: pre-steady-state target cleavage rate (min^-1); MIWI and MILI are mouse PIWI proteins and EfPiwi is from a freshwater sponge; tags in brackets are library labels; higher = faster piRNA-guided slicing of the target
Details: guide: Kctd7 piRNA 5'p-UGUUAAUCUCUCAGAGAAGGUGACAG; auxiliary factor: 500 nM mouse GTSF1
Protocol: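 Cleave-'n-Seq: a library of target RNAs (target site embedded in constant flanks, ACAGCATTCCGCGTTAGTGATATCCG... 5' flank; DNA-blocked outside the site) at 0.1 nM was incubated with 1 nM active mouse MILI or MIWI piRISC (synthetic 5'-monophosphorylated piRNA guide) with or without 500 nM mouse GTSF1 at 33 °C for 1 min to 16 h. Uncleaved targets were sequenced and normalised to non-target controls, and the pooled three trials were fitted to a burst-and-steady-state model to give the pre-steady-state cleavage rate (min^-1; k3 is constrained to at most 1e-4). Sequence is the target site only; target names encode pairing extent (gX:gY) and contiguous / 1-mismatch / 2-mismatch / bulge geometry. Fits with R² ≤ 0 are excluded.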

| Sequence | pre-steady-state target cleavage rate |
| --- | --- |
| UAGUGACAGUGCUUCUCUGAGAGCAUUAACA | 0.0156 ± 0.0038 |
| UAGUCACACACCUUCUCUGAGAGAUUAUGA | 0.0595 ± 0.018 |
| UAGUGACAGACCAUCUGUGAGAGAUUAACA | 0.0275 ± 0.0074 |
| UAGUGACAGUGCUUCAUCUGAGAGAUUAACA | 0.00529 ± 0.0024 |
| UAGUGACAGUGCUUCUCUGAGAGAUUAGACA | 0.00902 ± 0.0031 |
| UAGUGAGUGACCUUCUCUGAGAGAUUAUCA | 0.0842 ± 0.015 |
| UAGUGACACUGGUUCUCUGAGAGAUAUUGA | < 0.0001 |
| UAGUGAGUCACCUUCUCUGAGAGAUAACA | 0.107 ± 0.038 |
| UAGUGACACACCUUCAUCUGAGAGAUUAACA | 0.0394 ± 0.012 |
| UAGUGUGUCACCUUCUCUGUGAGAUUUUGA | 0.00698 ± 0.0049 |
| UAGUGACACACCUUCUCUCUGAGAUUAACA | 0.00653 ± 0.0037 |
| UAGUCUGUCACCUUCUGACAGAGAUUAACA | 0.014 ± 0.0054 |
| UAGUGAGUCAGCUUCUCUGAGAGAAUAACA | 0.0677 ± 0.016 |
| UAGUGUGUCUCCUACUCUGAGAGAUUAACA | 0.104 ± 0.012 |
| UAGUGAGACAGCUUCUCUGAGAGAUUAACA | 0.0918 ± 0.0066 |
| UAGUGAGUCACCAUCUCUGAGAGAUUAACA | 0.195 ± 0.013 |
| UAGUGACUCACCUUCUCUGUGAGAUUUACA | 0.0274 ± 0.0087 |
| UAGUGUGUCACCUUCUCUGAGAGAUUAACU [g2:g25:cont:t1U] | 0.187 ± 0.015 |
| UAGUGAGUCACCUUCACUGAGAGAUUUACA | 0.135 ± 0.026 |
| UAGUCUGUCACCUUCGUCUGAGAGAUUAACA | 0.116 ± 0.0099 |
| UAGUGACUCACCUUCUCUGACACAUUAACA | 0.00743 ± 0.004 |
| UAGUCUGUCACCUUCUCUGGGAGAUUAACA | 0.213 ± 0.014 |
| UAGUGACACACCUUCGUCUGAGAGAUUAACA | 0.0417 ± 0.007 |
| UAGUGACAGACCUUCUCUGAGAGAUGAACA | 0.0194 ± 0.0082 |

| Sequence | pre-steady-state target cleavage rate |
| --- | --- |
| UAGUGACUCACCUUCUCUGAGAGAUUAAGA | 0.106 ± 0.015 |
| UAGUGACAGUGCUUCUCUGACAGUUUAACA | < 0.0001 |
| UAGUGAGUCACCUUCUCUGAGGAUUAACA | 0.0489 ± 0.016 |
| UAGUGAGUCACCUUCUCUGUGAGAAUAACA | 0.0115 ± 0.0047 |
| UAGUGACACACCUACUCUGAGAGAAUAACA | 0.00881 ± 0.0041 |
| UAGUGACAGUGCUUCCCUGAGAGAUUAACA | 0.0245 ± 0.0075 |
| UAGUGACAGACCUUCCUCUGAGAGAUUAACA | 0.0307 ± 0.0059 |
| UAGUGACAGUCCUUCUGUCAGAGAUUAACA | 0.00956 ± 0.0043 |
| UAGUGACAGUGGAAGAGACUGAGAUAUAACA | < 0.0001 |
| UAGUGAGUCACCUUCUCUGAGAGAUUUAACA | 0.225 ± 0.04 |
| UAGUGAGUCACCUUCCCUGAGAGAUUAACA | 0.394 ± 0.074 |
| UAGUGACACAGCUUCUCUGAGACAUUAACA | 0.0087 ± 0.0021 |
| UAGUGACACACCUUCUGUGAGAGAUUUUGA | 0.0219 ± 0.0092 |
| UAGUGAGUCAGGAUCUCUGAGAGAUUAAGA | 0.00731 ± 0.0022 |
| UAGUGACACACCUUCUCUGAGAGAAUUAACA | 0.175 ± 0.035 |
| UAGUGACUCACCUUCACUGAGAGAUUAAGA | 0.0749 ± 0.015 |
| UAGUGACACACCUUCUCUGAGAGAUUAACG [g2:g22:cont:t1G] | 0.121 ± 0.0094 |
| UAGUGACUCACCUUCUCUGAGAGAUUUAGA | 0.0154 ± 0.006 |
| UAGUGAGUCACCUUCACUGAGAGAUUAUCA | 0.182 ± 0.041 |
| UAGUGACACACCAUUCUCUGAGAGAUUAACA | 0.106 ± 0.012 |
| UAGUCUCUCACCUUCUCUGAGAGAUUAACA | 0.0785 ± 0.018 |
| UAGUGACACUGCUUCUCUGAGAGAUUAUGA | 0.00315 ± 0.0025 |
| UAGUGUGUCACGUUCUCUGAGAGAUUAUCA | 0.0564 ± 0.0086 |
| UAGUGACAGUCCUUCUGAGAGAGAUUAACA | 0.0075 ± 0.0031 |

| Sequence | pre-steady-state target cleavage rate |
| --- | --- |
| UAGUGACUCAGCUUCUCUGAGAGAUUUACA | 0.0407 ± 0.0075 |
| UAGUGACACAGCUUCUCUGAGAGAAUAACA | 0.00726 ± 0.0037 |
| UAGUGACAGUGGUUCUCUUAGAGAUUAACA | 0.00345 ± 0.0024 |
| UAGUGACUCACCUUCUCUGUGACAUUAACA | 0.026 ± 0.0047 |
| UAGUGACUCACCUUCUCUGAGAGAUUACCA | 0.0788 ± 0.015 |
| UAGUCUGUCACCAACUCUGAGAGAUUAACA | 0.129 ± 0.0079 |
| UAGUGACUCACCUUCUCUGAGAGAUUAAGCA | 0.122 ± 0.023 |
| UAGUGUGUCACCUUUCUCUGAGAGAUUAACA | 0.187 ± 0.016 |
| UAGUGACAGUGCUUCUAUGAGAGAUUAACA | 0.0108 ± 0.0042 |
| UAGUGACAGUCCUUCUCUGAGAGAUUGACA | 0.0987 ± 0.029 |
| UAGUGAGAGACCUUCUCUGAGAGAUUAUGA | 0.00813 ± 0.005 |
| UAGUGACUCACCUUCUCAGAGAGAUUUUGA | 0.00816 ± 0.0047 |
| UAGUGUGUCACCUUCUCUGAGAGAUAUACA | 0.0339 ± 0.013 |
| UAGUGUGUCACCUUCUCUGAGAUAUUAACA | 0.0924 ± 0.021 |
| UAGUGACACACCUUCUCUGAGAGAUUAGACA | 0.0824 ± 0.016 |
| UAGUGACACUCCAUCUCUGAGAGAUUAACA | 0.0501 ± 0.0083 |
| UAGUGACUCACGUUCUCUGAGAGAUAAACA | 0.0188 ± 0.007 |
| UAGUGAGUCACCUUCUCUGAGAGAUAAUGA | 0.0112 ± 0.0075 |
| UAGUGACAGUGCUUCUCUGUGAGAUUAAGA | 0.00296 ± 0.0028 |
| UAGUGACACUCCUUCUCUGAGAGAUUUACA | 0.0825 ± 0.016 |
| UAGUGACAGUCCUUCUCUGAGAGAUUAAGCA | 0.0236 ± 0.0065 |
| UAGUCUGUCACCAAGUCUGAGAGAUUAACA | 0.122 ± 0.0088 |
| UAGUGACACACGUUCACUGAGAGAUUAACA | 0.0988 ± 0.0062 |
